Data on 48 molecules can be found in PubChem BioAssay AID1508624 (National Center for Advancing Translational Sciences (NCATS), 2021).

Each structure is given as a SMILES string. The campaign covered roughly 48,000 compounds. About 120 (0.25%) were called active. Inconclusive results (about 4%) are left out. The call rests on the fitted dose curve; in most records, active means well fitted activation curve with a large enough effect; inconclusive means small, poorly fitted or top-dose-only effect, or another doubt; inactive means no such curve, though single readings can be large or run the other way. Only a part is listed here, and it is no random draw. Where no call is shown, the source filed none.

A short description of this experiment: Primary qHTS for Identification of Small Molecule Activators of Huntingtin-Antisense Promoter Activity. Further: nearly all actives have a fitted effect of over 55% in size. The settings on record: HEK293 HTT-AS promoter firefly luciferase reporter, 24 h; activity change, positive = activation: at 57.5 µM (top of the series), percent change from vehicle, -100% = no light. The source says: Assay Provider: Russell L. Margolis M.D.
Department Neurology, Johns Hopkins University School of Medicine, Baltimore, MD
Huntington's Disease (HD) is a neurodegenerative disorder caused by a CAG repeat expansion in exon 1 of huntingtin (HTT). While there are currently no disease-modifying treatments for HD, recent efforts have focused on development of nucleotide-based therapeutics to lower HTT expression. As an alternative to siRNA or oligonucleotide methods, we hypothesized that suppression of HTT expression might be accomplished by small molecules that either (1) directly decrease HTT expression by suppressing HTT promoter activity or (2) indirectly decrease HTT expression by increasing the promoter activity of HTT-AS, the gene antisense to HTT that appears to inhibit expression of HTT.
We developed and employed a high throughput screen for modifiers of HTT and HTT-AS promoter activity using luminescent reporter HEK293 cells; of the 52,041 compounds tested, we identified 898 replicable hits. We used a rigorous stepwise approach to assess compound toxicity and the capacity of the compounds to specifically lower huntingtin protein in 5 different cell lines, including HEK293 cells, HD lymphoblastoid cells, mouse primary neurons, HD iPSCs differentiated into cortical-like neurons, and HD hESCs. We found no compounds which were able to lower huntingtin without lowering cell viability in all assays, though the potential efficacy of a few compounds at non-toxic doses could not be excluded.
SEQUENCE No. (1, 2, 3, etc.); […] (e.g., Cells, Incubation, Reagent, etc.); VALUE and DESCRIPTION.
1; Reagent; 4 uL; 2,500 Hek293 luciferase reporter cells per wells
3; Compound; 23 nL; Control inhibitor / compound library
5; Reagent; 2.5 uL; Firefly Luc reagent; Dual-Glo Luciferase Reporter Assay System (Promega)
6; Time; 10 min; room temperature incubation
7; Detection; Luminescence; FLuc
NOTES (numbers refer to sequence above)
1; High-throughput screening, measuring luminescence from a Hek293 luciferase reporter, was performed in 1,536 well white-walled tissue-culture treated plates. 2,500 cells were plated in 4 µL of Opti-MEM per well using a Multidrop Combi Reagent Dispenser (ThermoFisher).
2; Assay plates were cultured for 24 hours.
3; Control inhibitor (PTC124; final concentration of 50 uM) and compound library (at final concentrations of 460 nM - 57.5 uM) were added to the assay plate using the Kalypsis Pintool Robotic System equipped with 1536 pinheads.
4; Cells were then incubated for 24 hours at 37 degrees C prior to luminescence measurements.
5; In all cases, luminescence was measured using the Dual-Glo Luciferase Reporter Assay System (Promega) following the manufacturer's instructions.
6; Room temperature incubation.
7; Luminescence signal was obtained using the PerkinElmer ViewLux plate reader. Results were normalized to vehicle control (0% activity) and zero RLU (-100% activity).
As to `COc1ccccc1N1CCN(C(=O)c2cc3c(=O)oc4ccccc4c3s2)CC1`, the “activity change, positive = activation” value was inactive: -8.91%. Turning to `N#Cc1ccccc1OCC(=O)N1CCN(c2ccccc2F)CC1`, the activity change, positive = activation was determined as 2.47%. The figure for `CCOc1ccc(C2C(=O)N(C3CCCCCC3)CC(=O)N2CCc2ccc(Cl)cc2)cc1OC` (stereo not drawn) is -34.2%; for `CCCc1cc(=O)[nH]c(Nc2ccc(C)c(O)c2)n1` it is -3.64%; for `COC(=O)c1ccc(NC(=O)CC2C(=O)N(c3ccc(C)cc3)C(=O)N2Cc2ccc(OC)cc2)cc1` (stereo not drawn) it is -11.6%.

Regarding `Cc1cccc(CCNC(=O)c2c[nH]c3ccc(S(=O)(=O)Nc4ccccc4F)cc3c2=O)c1`, the “activity change, positive = activation” value was inactive: -46%. As for `COC(=O)c1ccc(NC(=O)CC2C(=O)N(c3cccc(C)c3)C(=O)N2C2CCCC2)cc1` (stereo not drawn), the activity change, positive = activation is -10.1%.

For the molecule `COC(=O)c1cc2oc3ccccc3c2n1CC(=O)Nc1ccc(N(C)C)cc1`, the activity change, positive = activation is 33.8%. As to `Cn1c(=O)c(F)c(Nc2ccc(I)cc2F)c2c(=O)n(C[C@@H](O)CO)cnc21`, the “activity change, positive = activation” value is inactive: -30%.

Consider `COc1ccccc1CN1C(=O)CN(C2CCCCCC2)C(=O)C1c1ccc(C)cc1` (stereo not drawn), for which the activity change, positive = activation is -0.696%. The figure for `CN(C)S(=O)(=O)c1ccc(C(=O)NC2CC(=O)N(c3ccc4c(c3)OCCO4)C2)cc1` (stereo not drawn) is inactive: -29.3%; for `COc1ccc(NC(=O)CSc2nc(-c3ccco3)nc3cc(=O)[nH]n23)cc1` it is -2.91%.

`O=S(=O)(Nc1ccc(-c2ccc(N3CCCC3)nn2)cc1)c1cccc(C(F)(F)F)c1`: the activity change, positive = activation was -2.79%.

Consider `Cc1cc(C(=O)Nc2c(C)nn(Cc3ccc(F)cc3)c2C)no1`, for which the activity change, positive = activation was -10.6%.

For `CC1Cc2cc(S(=O)(=O)CCC(=O)Nc3ccc(F)c(Cl)c3)ccc2N1C(=O)C1CC1` (stereo not drawn), the activity change, positive = activation was -32.8%. The figure for `O=C(NC1CC1)c1cccc(-c2ccc3c(NC(=O)C4CC4)n[nH]c3c2)c1` is inactive: -26.6%; for `CCc1ccc(NC(=O)CC2C(=O)N(c3cccc(C)c3)C(=O)N2Cc2ccco2)cc1` (stereo not drawn) it is -8.52%. Regarding `COc1cccc2cc(C(=O)NCCc3c(C)[nH]c4ccc(F)cc34)c(=O)oc12`, the “activity change, positive = activation” value was inactive: 5.11%. The result for `CC(C)(C)c1ccc(-c2nc(SCC(=O)Nc3ccccc3F)n3[nH]c(=O)cc3n2)cc1` reads -9.45%; that for `Cc1ccccc1NC(=O)c1c(C)oc2ccc(O)c(CN3CCN(C)CC3)c12`, -5.95%. The figure for `Cc1nc2ccn(Cc3cccs3)c(=O)c2cc1C(=O)N1CCN(c2ccccc2F)CC1` is -18.5%; for `O=C1C(=O)N(C2CCN(C(=O)c3ccccc3Cl)CC2)CCN1Cc1ccc(F)cc1` it is -1.21%. The figure for `COc1cc(=C2C=c3ccccc3=N2)[nH]c1=Cc1[nH]c(C)cc1C` is inactive: -46.6%; for `COc1ccccc1CNC(=O)CCS(=O)(=O)c1ccc2c(c1)CCN2C(C)=O` it is -7.63%; for `Cc1ccc(-n2ncc3c(Nc4cccc(C)c4C)ncnc32)cc1` it is inactive: -19.7%.

Regarding `CC1Cc2cc(S(=O)(=O)NCc3ccccc3Cl)ccc2N1C(=O)C1CCC1` (stereo not drawn), the “activity change, positive = activation” value was inactive: -80.1%. The result for `CCOc1ccc(NC(=O)c2ccc(-c3nc(COc4ccccc4)c(C)o3)cc2)cc1` reads -11.9%; that for `CCOc1ccc(C(=O)Nc2ccc3nc(SCc4ccccc4)sc3c2)cc1`, inactive: -17.5%.

Consider `COc1ccc(CN2COc3ccc4c(oc(=O)c5ccccc54)c3C2)cc1OC`, for which the activity change, positive = activation is -0.224%. The result for `Cc1nn(-c2ccc(N3CCCCC3)nn2)c(C)c1CCC(=O)NCc1ccccc1F` reads -15.6%. For the molecule `Nc1nc(Nc2ccc(S(N)(=O)=O)cc2)nn1C(=O)c1c(F)cccc1F`, the “activity change, positive = activation” value is inactive: -33%.

For `CCOC(=O)c1cccc(NS(=O)(=O)c2cn(C)c(C)n2)c1`, the “activity change, positive = activation” value was inactive: -13.7%. For `CCOC(=O)c1ccc(NC(=O)c2ccc3c(c2)NC(=O)c2ccccc2S3)cc1`, the activity change, positive = activation was -23.6%. Take `CS(=O)c1ccc(-c2nc(-c3ccc(F)cc3)c(-c3ccncc3)[nH]2)cc1` (stereo not drawn): the “activity change, positive = activation” value is inactive: -24.5% [at 116 µM, percent change from vehicle, -100% = no light].

Take `O=C(O)CCc1nc2ccccc2[nH]1`: the “activity change, positive = activation” value was inactive: -10.5%. For the molecule `COc1ccc2c(c1)CCc1c(C(=O)Nc3cc(C)ccc3O)noc1-2`, the activity change, positive = activation worked out at 79.2%. `COc1cc(-c2nnc(SCC(=O)Nc3ccc(F)c(Cl)c3)o2)cc(OC)c1OC`: the activity change, positive = activation was determined as 6.42%.

Consider `COc1cccc(C(=O)Nc2ccccc2OCc2cc(=O)n3cc(C)ccc3n2)c1`, for which the “activity change, positive = activation” value is inactive: -3.77%. The result for `COc1ccc(-c2nc(C)c(CCNC(=O)Cc3ccc(F)cc3)s2)cc1OC` reads inactive: -7.47%; that for `CCCc1cc(=O)[nH]c(Nc2ccc(C(=O)O)cc2)n1`, -1.5%; that for `CC1(C)CC(=O)c2c(oc3c(Cl)cc(NS(=O)(=O)c4ccc(Cl)cc4)cc23)C1`, -4.82%.

Take `COc1cc(C2C(=O)N(C3CCCCCC3)CC(=O)N2CCc2ccccc2)ccc1OC(C)C` (stereo not drawn): the activity change, positive = activation came out at 1.97%. The figure for `Cc1ccc(C)c(-n2c(N)c(C#N)c3nc4ccccc4nc32)c1` is -16.2%; for `Cc1nc2ccn(Cc3ccco3)c(=O)c2cc1C(=O)NCc1ccccc1` it is -19.2%; for `CCCCOc1cccc(C(=O)N(Cc2ccc(C)o2)c2ccccn2)c1` it is inactive: -48%.

As to `C[C@@H](Oc1ccc2[nH]nc(C=Cc3cnn(CCO)c3)c2c1)c1c(Cl)cncc1Cl`, the “activity change, positive = activation” value was inactive: -38%. Take `CCc1ccc(CNC(=O)c2cc3c(=O)n(Cc4cccs4)ccc3nc2C)cc1`: the activity change, positive = activation is -27.1%. The result for `O=C(CSc1cn(CCNC(=O)c2c(F)cccc2F)c2ccccc12)Nc1ccc(F)cc1` reads inactive: -19.8%.
